Structures are written as SMILES. Among all 310,000 compounds or so, about 2,200 (0.71%) showed an effect of 50% or more. Effects have a minus sign here. Some of the results follow.

The target in this assay is human ether-à-go-go-related gene (hERG) potassium channel (human, UniProt Q12809). The assay can be described thus: primary screen, population patch clamp on CHO cells stably expressing hERG.
Sequence of human ether-à-go-go-related gene (hERG) potassium channel (Q12809 whole entry, looked up): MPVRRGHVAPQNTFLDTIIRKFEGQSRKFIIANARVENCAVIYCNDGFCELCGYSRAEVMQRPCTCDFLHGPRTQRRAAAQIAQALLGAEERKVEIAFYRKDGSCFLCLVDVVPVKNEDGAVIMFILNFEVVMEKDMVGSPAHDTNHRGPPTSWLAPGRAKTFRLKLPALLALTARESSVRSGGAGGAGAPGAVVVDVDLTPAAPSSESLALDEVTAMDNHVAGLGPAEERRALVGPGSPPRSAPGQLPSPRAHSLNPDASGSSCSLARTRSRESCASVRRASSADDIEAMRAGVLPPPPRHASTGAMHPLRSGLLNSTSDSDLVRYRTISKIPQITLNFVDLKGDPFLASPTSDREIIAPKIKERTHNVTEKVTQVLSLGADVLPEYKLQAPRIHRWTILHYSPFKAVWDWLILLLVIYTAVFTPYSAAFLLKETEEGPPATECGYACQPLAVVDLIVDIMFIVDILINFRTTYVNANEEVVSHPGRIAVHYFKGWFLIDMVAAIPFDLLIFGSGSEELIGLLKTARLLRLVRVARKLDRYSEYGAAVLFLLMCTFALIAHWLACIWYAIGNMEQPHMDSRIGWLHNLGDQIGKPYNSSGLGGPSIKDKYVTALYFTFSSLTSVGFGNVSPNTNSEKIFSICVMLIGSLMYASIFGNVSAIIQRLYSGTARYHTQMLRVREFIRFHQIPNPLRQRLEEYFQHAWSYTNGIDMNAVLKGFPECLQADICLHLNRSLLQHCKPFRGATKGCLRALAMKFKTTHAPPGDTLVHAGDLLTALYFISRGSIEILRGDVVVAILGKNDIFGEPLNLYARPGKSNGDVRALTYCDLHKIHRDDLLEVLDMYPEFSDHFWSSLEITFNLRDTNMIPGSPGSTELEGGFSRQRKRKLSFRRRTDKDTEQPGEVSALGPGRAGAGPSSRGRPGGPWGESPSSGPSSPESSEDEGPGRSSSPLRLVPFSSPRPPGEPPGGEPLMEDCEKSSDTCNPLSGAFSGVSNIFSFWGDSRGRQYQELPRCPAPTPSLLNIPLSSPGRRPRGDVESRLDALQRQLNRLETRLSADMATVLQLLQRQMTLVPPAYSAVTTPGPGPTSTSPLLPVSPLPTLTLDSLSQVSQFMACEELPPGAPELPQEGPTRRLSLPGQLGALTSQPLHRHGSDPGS
With `C=CCCC(=O)N1CCCC(Cc2cccc(Cl)c2)(C(=O)OCC)C1` (stereo not drawn), the “hERG current change (%, negative = inhibition) at 1uM” value turned out to be 17%.

As to `COc1ccccc1-n1ccnc(SCC(=O)NC2CCCC2)c1=O`, the “hERG current change (%, negative = inhibition) at 1uM” value came to 10.1%.

Take `N#CCCn1c2ccccc2c2nc3ccccc3nc21`: the “hERG current change (%, negative = inhibition) at 1uM” value came to 10.3%.

For the compound `COc1ccc(NC(=O)c2nn(C)c3c2CS(=O)(=O)c2ccccc2-3)cc1`, the “hERG current change (%, negative = inhibition) at 1uM” value turned out to be 15.9%.

As for `CSc1ncccc1C(=O)OCC(=O)N1CCN(S(=O)(=O)c2ccc(C)cc2C)CC1`, the “hERG current change (%, negative = inhibition) at 1uM” value is recorded as 18.2%.

In the case of `CC1CCc2sc(C(=O)NCC(c3ccco3)N3CCCCC3)cc2C1` (stereo not drawn), the “hERG current change (%, negative = inhibition) at 1uM” value was 6.47%.

Regarding `CC(C)C(C(=O)NCC1CCCO1)N(CC1CCCO1)C(=O)CNS(=O)(=O)c1ccccc1` (stereo not drawn), the “hERG current change (%, negative = inhibition) at 1uM” value is given as 20.6%.

For the compound `Cc1occc1-c1nnc(SCC(N)=O)n1Cc1ccccc1`, the “hERG current change (%, negative = inhibition) at 1uM” value amounted to 4.3%.

In the case of `Cc1ccc2nc(NCCCO)nc(-c3ccccc3)c2c1`, the “hERG current change (%, negative = inhibition) at 1uM” value is given as -2.03%.

Take `O=C(Nc1ccccc1NC(=O)NC1CCCCC1)NC1CCCCC1`: the “hERG current change (%, negative = inhibition) at 1uM” value was 1.34%.

With `Cc1cccc(NC(=O)CSc2nnc(CCNC(=O)OC(C)(C)C)o2)c1C`, the “hERG current change (%, negative = inhibition) at 1uM” value is listed as 13.1%.

With `CC(C)OCCCn1c(SCC(=O)Nc2ccccc2C(F)(F)F)nc2nccnc2c1=O`, the “hERG current change (%, negative = inhibition) at 1uM” value is listed as 17%.

`CC(C)CCNC(=O)c1cc([N+](=O)[O-])ccc1N1CCOCC1`: the “hERG current change (%, negative = inhibition) at 1uM” value stood at 3.19%.

With `CC(=O)Nc1ccc(S(=O)(=O)N2CCSC2c2ccc(Cl)cc2)cc1` (stereo not drawn), the “hERG current change (%, negative = inhibition) at 1uM” value is listed as 7.19%.

For the compound `Cc1ccc(S(=O)(=O)N2CCCCC2)cc1C(=O)NCC1CCCO1` (stereo not drawn), the “hERG current change (%, negative = inhibition) at 1uM” value is reported as 6.66%.

As for `COc1ccccc1-c1nn2c(=O)cc(C)nc2s1`, the “hERG current change (%, negative = inhibition) at 1uM” value amounted to 11.1%.

Consider `CC(C(=O)NC1CCS(=O)(=O)C1)N1C(=O)/C(=C/c2ccc(Cl)cc2)SC1=S` (stereo not drawn), for which the “hERG current change (%, negative = inhibition) at 1uM” value came out at 15.6%.

As to `C[N+]1(CC(O)COCC2COc3ccccc3O2)CCOCC1.[I-]` (stereo not drawn), the “hERG current change (%, negative = inhibition) at 1uM” value stood at 11.8%.

For the compound `Cc1cc(S(=O)(=O)Cc2noc(-c3c(C)noc3C)n2)c(C)cc1Cl`, the “hERG current change (%, negative = inhibition) at 1uM” value turned out to be 5.81%.

For the compound `COCCCNC(=O)CNC(=O)c1cn(-c2ccccc2OC)c(=O)c2ccccc12`, the “hERG current change (%, negative = inhibition) at 1uM” value is given as -10.1%.

Regarding `O=C(Nc1cc(Oc2ccc(Cl)cc2)cc([N+](=O)[O-])c1)c1ccco1`, the “hERG current change (%, negative = inhibition) at 1uM” value came out at 11.1%.

In the case of `COc1ccc([C@H]2C=C(C(=O)O)O[C@@H](OCCCCO)C2)cc1`, the “hERG current change (%, negative = inhibition) at 1uM” value is 8.72%.

Regarding `CCn1c(CC(=O)Nc2ccccc2F)nnc1SCC(=O)NC1CCCCC1`, the “hERG current change (%, negative = inhibition) at 1uM” value is on record as 11.2%.

`COc1ccc(/C(N)=N/OC(=O)c2c(-c3ccccc3Cl)noc2C)cc1OC`: the “hERG current change (%, negative = inhibition) at 1uM” value was 6.08%.

(Values after PMC4336329 (PLoS ONE, 2015).)
